Data: patent US12338291B2, “Humanized antibody molecules to CD138 and uses thereof” (VISTERRA, INC., priority 2019, dated 2025)

Columns and labels:
[1] = test system: CD138+ human lymphoblastic myeloma U266 cells; test: Luciferase-based ADCC reporter bioassay (Jurkat FcγRIIIa effector cells) against U266; type: cell-based; conditions: 3-fold dilutions from 10 μg/mL, E:T 10:1, 16 h, FIG. 4
Method: (§1) In another experiment, the ADCC activity of the humanized variants of anti-CD138 antibody 2810 was assessed. Briefly, the humanized variant antibodies were produced by transient transfection of HEK 293 cells metabolically altered for purposes of reduced Fc fucosylation. The antibodies were then evaluated for antibody dependent cellular cytotoxicity (ADCC) activity against CD138^+ human lymphoblastic myeloma U266 cells in a luciferase based ADCC reporter assay using, as effector cells, engineered Jurkat cells stably transfected with the human FcγRIIIa receptor. U266 cells were incubated with mAbs that were 3-fold serially diluted from a starting concentration of 3 μg/mL and added to effector cells and CD138+U266 multiple myeloma target cells at a cell ratio of effector:target of 10:1. After 16-hour incubation at 37° C., luciferase activity was assessed as a measure of ADCC activity and reported as relative luminescence units (RLU). […]
Second, humanized anti-CD138 antibody variants 3821, 4321, 4320, 4521, 4326, and 3820 were assessed for ADCC activity against U266, MM1.S, LP-1, and RPMI 8226 CD138^+ multiple myeloma cell lines using a luciferase based ADCC reporter assay, as described in Example 15. […] After a 16 hour incubation at 37° C., cellular luciferase levels were quantified as a measure of ADCC activity and reported as relative luminescence units (RLU). […]

CD138+ MM1.S cells [2] = test: Antibody binding to MM1.S cells by flow cytometry; parameters: species or system human; conditions: FIG. 3
Method: (§2) In one experiment, the humanized variants of monoclonal antibody 2810 were assessed for their capacity to bind to CD138 on the surface of cells. Briefly, the humanized variants of antibody 2810 were produced in HEK 293 cells following transient transfection. The antibodies were then serially diluted three-fold. Antibody binding to membrane CD138 was evaluated using the CD138+ human lymphoblastic myeloma cell line U266 and quantified by flow cytometry. Antibody cell binding was reported as geometric mean fluorescence intensity (MFI). Binding data were plotted using nonlinear regression analysis and a 4-parameter curve fit.
(§3) First, humanized anti-CD138 antibody variants 3821, 4321, 4320, 4521, 4326, and 3820 were evaluated for binding to three different CD138+ multiple myeloma related cell lines: MM1.S, LP-1, and RPMI 8226. Antibody binding was measured by flow cytometry as described in Example 15.

CD138+ LP-1 cells [3] = test: Antibody binding to LP-1 cells by flow cytometry; parameters: species or system human; conditions: FIG. 3
Method: as §2, §3

CD138+ MM1.S cells [4] = test: Luciferase-based ADCC reporter assay against MM1.S; type: cell-based, human; conditions: 3-fold dilutions from 10 μg/mL, E:T 10:1, 16 h, FIG. 4
Method: as §1
(§4) Second, humanized anti-CD138 antibody variants 3821, 4321, 4320, 4521, 4326, and 3820 were assessed for ADCC activity against U266, MM1.S, LP-1, and RPMI 8226 CD138^+ multiple myeloma cell lines using a luciferase based ADCC reporter assay, as described in Example 15. […] After a 16 hour incubation at 37° C., cellular luciferase levels were quantified as a measure of ADCC activity and reported as relative luminescence units (RLU).

CD138+ LP-1 cells [5] = test: Luciferase-based ADCC reporter assay against LP-1; type: cell-based, human; conditions: 3-fold dilutions from 10 μg/mL, E:T 10:1, 16 h, FIG. 4
Method: as §1, §4

MM1.S (Luc) cells = test: In vivo efficacy in MM1.S (Luc) xenograft multiple myeloma model, BLI (Example 4); parameters: species or system mouse
Method: The quantity of emitted light from the tumor after systemic injection of D-luciferin was calibrated to correlate with viable tumor burden. […] For this study, in vivo BLI images were acquired on days 14, 21, 28, 35 and 42.
Anti-CD138 antibodies were dosed intraperitoneally twice weekly (Q3Dx2; 3 off) for five weeks.
Images were analyzed using Living Image 4.3.1 (PerkinElmer, MA) software.
FIGS. 6A-6B summarize the Mean BLI±standard error of the means of disseminated multiple myeloma tumors quantification from IVIS imaging at specific time points and dose levels shown. […] FIG. 6C summarizes percent survival of animals in vehicle group versus animals treated with anti-CD138 antibodies mAb 2810 and 4320. Percent survival was defined as mice surviving to a predetermined euthanasia criterium related to disease-related morbidity, defined as weight loss greater than 20%, severely impaired CNS function, or severely impaired movement or loss of righting reflexes.

[6] = Antibody production titers in Chinese hamster ovary cells; conditions: CHO transient transfection, after Protein A purification
Text: The yields represent antibody amounts following purification from cell culture media by Protein A affinity chromatography, carried out under identical transfection conditions and culture scale. Differential pre-purification titers based on quantification using Protein-A biosensors (bio-layer interferometry) of antibody in culture media was also noted likewise indicating differential expression levels (antibody titers).

human CD138 peptide 6A = target: T1, human CD138 peptide 6A (Homo sapiens, UniProt P18827); test: Antigen capture ELISA, binding to CD138 peptide 6A; conditions: FIG. 10
T1 construct: Pep6a; 220-245; 17; 26
T1 sequence (P18827 220-245 limits assumed): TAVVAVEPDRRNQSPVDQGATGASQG
Method: 1 or select human CD138 derived peptides (Table 3) was evaluated by antigen capture ELISA. In brief, MaxiSorp™ plates were first coated with antibodies 4320 or BB4 at a 0.5 μg/ml concentration overnight (12-15 hours) at 2-8° C. The immobilized monoclonal antibodies were tested for binding to biotinylated recombinant CD138 extracellular domain or peptides 2A, peptide 6A in 5-fold serial antigen dilutions starting at starting at a 50 nM concentration. HRP-conjugated Anti-biotin secondary antibody (1:10000 dilution) was used for detection.

[7] = Antibody serum titers (PK) in xenograft mice by human IgG ELISA (Example 7); type: in vivo, mouse
Method: Non-terminal blood sampling was taken weekly from 4 mice per group starting on day 14 prior to first dose day 15, 24 hour post-first dose day 20, prior to third dose day 27, prior to fifth dose and day 34, prior to seventh dose (if applicable). Animals chosen for weekly sampling alternated between animals 1-4 and 5-8 in each group to conform to a two-week bleeding schedule for each individual animal One hundred microliters of whole blood were collected via retro-orbital puncture and processed into serum for human antibody titer determination by ELISA. Human IgG1 antibody titers were measured in mouse sera using Human IgG Quantitative ELISA Kit, Bethyl Labs, (Catalog #E80-104) based on the manufacturer's recommendation, incorporating modifications as needed. Sera were diluted from 1:50-1:1350, as needed, to conform to preset limits of assay linearity and quantification (LOQ).

MM cell lines = test: NK cell-based ADCC assays using human-derived NK cells; conditions: incl. bortezomib- or lenalidomide-resistant lines
[8] = test system: autologously-derived myeloma cells; test: Killing of autologously-derived myeloma cells from relapsed/refractory patients; type: cell-based, human

B1: mAb 4320: humanized anti-CD138 IgG1 kappa antibody; VH SEQ ID NO: 471, VL SEQ ID NO: 475; HC SEQ ID NO: 527, LC SEQ ID NO: 528 (antibody)
heavy: QVQLVQSGAEVKKPGASVKVSCKASGYSFSSYYMHWVRQAPGQGLEWMGTIHPSDSTTNYNQKFQGRVTMTVDTSTRTAYMELSSLRSEDTAVYYCANFVYWGQGTTVTVSSASTKGPSVFPLAPSSKSTSGGTAALGCLVKDYFPEPVTVSWNSGALTSGVHTFPAVLQSSGLYSLSSVVTVPSSSLGTQTYICNVNHKPSNTKVDKRV[human IgG1 Fc not spelt out]
light: DIVMTQTPLSLSVTPGQPASISCKSSKSLLYKDGKTYLNWFLQKPGQSPQLLIYVVSTRASGVPDRFSGSGSGTDFTLKISRVEAEDVGVYYCQQLVEYPYTFGQGTKLEIKRTVAAPSVFIFPPSDEQLKSGTASVVCLLNNFYPREAKVQWKVDNALQSGNSQESVTEQDSKDSTYSLSSTLTLSKADYEKHKVYACEVTHQGLSSPVTKSFNRGEC
ADCC activity (RLU) [1]: induced ADCC activity | Antibody binding by flow cytometry (CD138+ MM1.S cells [2]): dose-dependent binding | Antibody binding by flow cytometry (CD138+ LP-1 cells [3]): dose-dependent binding | ADCC activity (RLU) (CD138+ MM1.S cells [4]): induced ADCC activity | ADCC activity (RLU) (CD138+ LP-1 cells [5]): induced ADCC activity | Whole body tumor burden (BLI) in comparison to mAb 2810 (MM1.S (Luc) cells; i.p. twice weekly, mAb 4320 4, 8 or 16 mg/kg, mAb 2810 4.0 mg/kg, FIG. 6): discernibly lower tumor burden and higher efficacy | Dose dependency of efficacy (MM1.S (Luc) cells; mAb 4320 at 4, 8, 16 mg/kg): did not demonstrate a dose dependency | Expression [6]: 106.4 mg/L | Binding to peptide 6A (human CD138 peptide 6A): detected at the higher concentration evaluated | Anti-drug antibody response (ADA) ([7]; C.B-17 SCID mice, repeat dosing): No anti-mAb 4320 antibody response | PK profile compared to parental mAb 2810 ([7]; mouse, in vivo): modestly better PK profile | Serum antibody levels vs dose ([7]; repeat dosing at 4, 8, 16 mg/kg, FIG. 17): clear and reasonably linear dose response | ADCC cell killing of MM cell lines (MM cell lines): potent cell killing activity | Killing of patient-derived myeloma cells [8]: effectively kills
